# Assay results reported in the supplement of paper PMC12217912.
# The list shows a part of the results. Sequences were assembled here from the parent chain. Values near 0.05 are background.
# B1: TEV protease; numbered along this chain (parent)
# chain: MGESLFKGPRDYNPISSSICHLTNESDGHTTSLYGIGFGPFIITNKHLFRRNNGTLVVQSLHGVFKVKDTTTLQQHLVDGRDMIIIRMPKDFPPFPQKLKFREPQREERICLVTTNFQTKSMSSMVSDTSCTFPSGDGIFWKHWIQTKDGQCGSPLVSTRDGFIVGIHSASNFTNTNNYFTSVPKNFMELLTNQEAQQWVSGWRLNADSVLWGGHKVFMVKPEEPFQPVKEATQL
# Variants of: B1
# Assay: raw area under fraction-flipped curve 0-4 h after induction (AUC4h, not background-subtracted), DNA-recorder readout of cleavage of the substrate (dimensionless); higher = more cleavage of the substrate by the protease variant
# Details: temperature: 34 °C; time window: 0-4 h after rhamnose induction
# Method: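 In vivo DNA recorder in E. coli TOP10(DE3) ΔrhaA at 34 °C. Each TEVp single-site mutant (parent TEVp 0) is paired with a single-site variant of the 7-mer TEVs (canonical ENLYFQ|S). The substrate sits between flexible linkers in a Bxb1-sfGFP-TEVs-SsrA fusion, so cleavage stabilises Bxb1 and speeds flipping of a recombination array, read by NGS. The value is the raw area under the fraction-flipped curve over 0-4 h after rhamnose induction (AUC4h), with ≥20 reads per time point. It is not background-subtracted; inactive controls average about 0.047.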
# 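Note: Bxb1 expression induced with 0.2% (w/v) L-rhamnose at OD600 near 0.5, cultures sampled hourly, flipped fraction per protease–substrate barcode pair counted by paired-end Illumina sequencing.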
Variant,area with substrate ENAYFQS,area with substrate ENCYFQS,area with substrate ENDYFQS,area with substrate ENEYFQS,area with substrate ENFYFQS,area with substrate ENGYFQS,area with substrate ENHYFQS,area with substrate ENIYFQS,area with substrate ENKYFQS,area with substrate ENMYFQS,area with substrate ENNYFQS,area with substrate ENPYFQS,area with substrate ENQYFQS,area with substrate ENRYFQS,area with substrate ENSYFQS,area with substrate ENTYFQS,area with substrate ENVYFQS,area with substrate ENWYFQS,area with substrate ENYYFQS
G150V,0.0464,0.0542,0.0598,0.0614,0.0495,0.068,0.059,0.0587,0.0794,0.0518,0.0559,0.0492,0.0559,0.0427,0.0551,0.0568,0.0613,0.0594,
Q151E,0.0648,0.0524,0.0684,0.0658,,0.0535,0.0573,0.133,,,0.0584,0.0575,0.0553,0.0562,0.0651,0.0624,0.0873,,0.0344
Q151M,0.0542,,0.0678,0.058,0.0737,0.0584,,,,,0.0718,0.0629,0.0696,0.0523,0.0621,,0.0579,,
C152P,0.0504,0.0609,0.0619,,,0.0664,,,0.0647,,0.0617,,0.0529,0.0523,0.0508,0.082,0.053,0.0595,0.0733
S154H,0.0573,0.078,0.0624,,0.0487,0.0509,,0.132,0.0567,,,0.0504,0.0684,,0.0682,,0.0596,0.0658,0.0521
P155D,0.0501,0.0752,0.0587,0.0537,,0.0477,0.044,,,0.0528,0.0518,,0.054,0.0388,0.0475,0.0503,0.053,,
P155K,0.0542,0.0475,0.0465,,0.0542,0.0595,0.0306,0.0545,,0.0563,0.0478,0.0613,0.0659,0.0634,0.0573,0.0481,0.0538,,
L156E,0.0473,,0.0512,0.058,0.0398,0.0598,0.0612,0.0188,0.0366,0.0593,0.042,,0.0548,0.0455,0.0472,0.0496,0.0596,0.0479,
L156Q,0.0493,0.047,0.0572,0.0566,0.0544,,0.0487,,0.0319,,0.0507,0.0519,0.0625,0.0517,0.0508,,0.0485,0.0853,
V157D,0.0524,0.0501,0.0598,0.0491,0.0444,0.0599,,0.0402,0.0413,,0.0543,0.0441,0.0541,0.046,0.0433,,,0.0405,
V157L,0.0564,,0.0563,0.0715,,,0.0636,0.0954,,,0.0543,0.0527,0.0554,0.0868,0.07,0.0611,0.0724,0.0601,
V157S,0.0673,0.0694,0.0579,0.041,0.0593,0.0637,,0.0825,0.0609,,0.0528,,0.0724,0.0585,0.0614,,0.053,0.0227,0.0617
S158G,0.0394,0.0698,0.0531,0.042,0.0719,0.0649,0.055,,,,0.0656,,,,0.0578,0.0598,0.0724,,0.0716
D161A,0.0567,0.0593,0.0611,0.0518,,0.0534,0.0587,,,0.0569,,0.0652,0.0561,0.061,0.0569,,0.0465,,
G162P,0.0562,,0.0327,0.0581,0.0382,0.061,,0.0631,0.0534,0.0283,0.0536,0.049,0.0431,,0.0701,0.0469,0.0555,,0.0435
I164D,0.045,0.0607,0.0564,0.0603,0.0689,0.0551,0.0415,0.0612,0.0554,,0.0576,0.0528,0.0565,0.0513,0.0637,0.0633,0.0544,0.0469,0.0651
V165R,0.0577,0.0743,0.0529,0.0406,0.0481,,0.0565,0.0444,0.0596,0.0526,0.0461,,0.057,0.0372,0.0522,0.0463,0.0604,,
V165T,0.0479,0.0566,0.0656,0.0638,0.0501,0.055,0.0563,0.0623,0.0548,0.0611,0.0535,0.0699,0.0607,0.0467,,0.0367,0.0608,,
G166A,0.0341,0.049,0.0425,0.05,0.0419,0.0557,0.0463,0.0523,0.0571,,0.0499,0.0467,0.03,,0.0515,,0.0461,0.0352,
G166D,0.0498,0.055,0.0538,0.0657,0.0568,0.0525,,0.0412,0.0452,0.0586,0.0422,0.059,0.0501,0.0469,0.0499,0.0459,0.0484,0.004,0.0431
G166M,0.0463,0.0289,,0.0635,0.0457,,0.0436,,,0.0353,,,0.0377,,0.0543,0.0565,0.0582,0.0359,
S169M,0.0799,0.0626,0.0631,0.0581,0.0624,0.075,,0.0646,,,0.0807,0.0637,0.0547,0.0561,0.0577,0.0564,0.0631,0.0609,
S171F,0.0622,,0.0635,0.0459,,0.0613,,,,,0.0662,,0.0574,0.0663,,0.0505,,,
N177L,0.0621,0.0857,,0.0545,0.0511,0.061,0.0703,,,0.0903,,,0.0474,0.0541,0.0612,0.0727,0.0705,,
N177S,0.0561,0.0548,0.0483,0.0575,0.0559,0.0522,0.054,0.0634,,0.0596,0.0449,0.0435,0.0484,0.049,0.0507,0.0478,0.0507,0.0451,0.0476
